Data as given in a collection of fitness landscapes (doi:10.1126/science.1257360).
The list shows a part of the results.

B1: PhoQ; a variant is named by its letters at X, in order, P23837 (parent)
chain: MKKLLRLFFPLSLRVRFLLATAAVVLVLSLAYGMVALIGYSVSFDKTTFRLLRGESNLFYTLAKWENNKLHVELPENIDKQSPTMTLIYDENGQLLWAQRDVPWLMKMIQPDWLKSNGFHEIEADVNDTSLLLSGDHSIQQQLQEVREDDDDAEMTHSVAVNVYPATSRMPKLTIVVVDTIPVELKSSYMVWSWFIYVLSANLLLVIPLLWVAAWWSLRPIEALAKEVRELEEHNRELLNPATTRELTSLVRNLNRLLKSERERYDKYRTTLTDLTHSLKTPLXXLQXXLRSLRSEKMSVSDAEPVMLEQISRISQQIGYYLHRASMRGGTLLSRELHPVAPLLDNLTSALNKVYQRKGVNISLDISPEISFVGEQNDFVEVMGNVLDNACKYCLEFVEISARQTDEHLYIVVEDDGPGIPLSKREVIFDRGQRVDTLRPGQGVGLAVAREITEQYEGKIVAGESMLGGARMEVIFGRQHSAPKDE

Variants of: B1
Test: enrichment ratio after two sorts for PhoP signalling (ratio (wild type AVST 3.29)); higher = more functional
Conditions: with PhoP (E. coli)

| Variant | enrichment ratio |
| --- | --- |
| RGLG | ≤ 0.25 |
| QDFS | ≤ 0.25 |
| WDHD | ≤ 0.25 |
| FDQV | ≤ 0.25 |
| DYGF | ≤ 0.25 |
| MVML | 11.9 |
| AETS | 20.8 |
| QHTC | ≤ 0.25 |
| LWLL | 0.353 |
| NKVT | ≤ 0.25 |
| WTHL | ≤ 0.25 |
| DVTA | ≤ 0.25 |
| IYDR | ≤ 0.25 |
| NVRL | ≤ 0.25 |
| QSLQ | ≤ 0.25 |
| FEEA | ≤ 0.25 |
| IPRK | ≤ 0.25 |
| FVTP | ≤ 0.25 |
| IPHD | ≤ 0.25 |
| VWPC | ≤ 0.25 |
| GSNR | ≤ 0.25 |
| AQPC | ≤ 0.25 |
| PCFG | ≤ 0.25 |
| LNIN | ≤ 0.25 |
| GCGS | ≤ 0.25 |
| SDIC | 15.1 |

| Variant | enrichment ratio |
| --- | --- |
| EMVR | ≤ 0.25 |
| LPNS | ≤ 0.25 |
| TRRA | ≤ 0.25 |
| DFST | ≤ 0.25 |
| GKCF | ≤ 0.25 |
| RGKF | ≤ 0.25 |
| YSWA | ≤ 0.25 |
| LKSA | ≤ 0.25 |
| AQKF | ≤ 0.25 |
| LETS | ≤ 0.25 |
| PLIE | ≤ 0.25 |
| FQYK | ≤ 0.25 |
| PWAQ | ≤ 0.25 |
| GTIF | 5.62 |
| KDCC | ≤ 0.25 |
| QFPL | ≤ 0.25 |
| QFAF | ≤ 0.25 |
| YAGY | ≤ 0.25 |
| IGVP | ≤ 0.25 |
| YQIE | ≤ 0.25 |
| FFSM | ≤ 0.25 |
| MSNV | ≤ 0.25 |
| IIWG | ≤ 0.25 |
| RQQT | ≤ 0.25 |
| YKGK | ≤ 0.25 |
| DFGD | ≤ 0.25 |

| Variant | enrichment ratio |
| --- | --- |
| SSDQ | ≤ 0.25 |
| IFQF | ≤ 0.25 |
| AVQE | ≤ 0.25 |
| EQKY | ≤ 0.25 |
| HRNW | ≤ 0.25 |
| IHHC | ≤ 0.25 |
| MQFQ | 11.9 |
| ERKY | ≤ 0.25 |
| QVMW | ≤ 0.25 |
| TYAQ | ≤ 0.25 |
| ILVS | ≤ 0.25 |
| WSDE | ≤ 0.25 |
| ENAV | ≤ 0.25 |
| VICQ | ≤ 0.25 |
| AQPA | ≤ 0.25 |
| LVNH | ≤ 0.25 |
| AWYF | ≤ 0.25 |
| RHRL | ≤ 0.25 |
| EMLA | ≤ 0.25 |
| YWHD | ≤ 0.25 |
| SNCF | 4.82 |
| MVAQ | 4.37 |
| SDEG | ≤ 0.25 |
| NWVI | ≤ 0.25 |
| HSEC | ≤ 0.25 |
| VGRI | ≤ 0.25 |

| Variant | enrichment ratio |
| --- | --- |
| KCII | ≤ 0.25 |
| QLHS | ≤ 0.25 |
| DMGG | ≤ 0.25 |
| MTVK | ≤ 0.25 |
| TNFK | ≤ 0.25 |
| PFIL | ≤ 0.25 |
| IFPS | ≤ 0.25 |
| THWR | ≤ 0.25 |
| WNRQ | ≤ 0.25 |
| ANPA | ≤ 0.25 |
| QKKS | ≤ 0.25 |
| NMVQ | ≤ 0.25 |
| WTMA | ≤ 0.25 |
| FEPV | ≤ 0.25 |
| RSTF | ≤ 0.25 |
| IECS | 2.89 |
| MPVM | ≤ 0.25 |
| EDIT | ≤ 0.25 |
| SRHV | ≤ 0.25 |
| PQML | ≤ 0.25 |
| GPML | ≤ 0.25 |
| WETE | ≤ 0.25 |
| ADIM | ≤ 0.25 |
| YNPV | ≤ 0.25 |
| QLGD | ≤ 0.25 |
| DMAE | ≤ 0.25 |

| Variant | enrichment ratio |
| --- | --- |
| PQHT | ≤ 0.25 |
| GTDH | ≤ 0.25 |
| AHTR | ≤ 0.25 |
| VITM | ≤ 0.25 |
| DNQR | ≤ 0.25 |
| GDEI | ≤ 0.25 |
| RSVI | ≤ 0.25 |
| TQDE | ≤ 0.25 |
| EAYL | ≤ 0.25 |
| HSHL | ≤ 0.25 |
| FDSW | ≤ 0.25 |
| TMME | 7.32 |
| ENQR | ≤ 0.25 |
| FQYP | ≤ 0.25 |
| SRLV | 0.905 |
| NLWK | ≤ 0.25 |
| KQYT | ≤ 0.25 |
| TFNS | 2.57 |
| HDLC | ≤ 0.25 |
| LPHM | ≤ 0.25 |
| ASSY | 8.56 |
| VLKD | ≤ 0.25 |
| HCVW | ≤ 0.25 |
| GLIF | ≤ 0.25 |
| DIED | ≤ 0.25 |
| SINT | 0.281 |

| Variant | enrichment ratio |
| --- | --- |
| AIPE | ≤ 0.25 |
| MTTN | ≤ 0.25 |
| VAAY | ≤ 0.25 |
| HMFT | ≤ 0.25 |
| PDQD | ≤ 0.25 |
| NNEG | ≤ 0.25 |
| LHTP | ≤ 0.25 |
| SIAL | 15.1 |
| EEAS | ≤ 0.25 |
| SEGG | 9.05 |
| KHWA | ≤ 0.25 |
| SFWV | ≤ 0.25 |
| GCMC | ≤ 0.25 |
| FEER | ≤ 0.25 |
| SSWW | ≤ 0.25 |
| LQMN | ≤ 0.25 |
| GTMC | ≤ 0.25 |
| YQNM | ≤ 0.25 |
| LPMN | ≤ 0.25 |
| QVFQ | ≤ 0.25 |
| HKRW | ≤ 0.25 |
| LDVR | ≤ 0.25 |
| VMDT | ≤ 0.25 |
